# The other results are listed elsewhere or left out. Single values are uncertain, as repeats are few or missing.
# Tests used:
# Experiment in all cases: cell count relative to DMSO control; melanoma cells; higher = more viable cells
# Conditions in all cases: library dose: low library concentration; 72 h
# COLO792 = system: COLO792
# COLO800 = system: COLO800
# COLO829 = system: COLO829
# G361 = system: G361
# IPC-298 = system: IPC-298
# IST-MEL1 = system: IST-MEL1
# LB2518-MEL = system: LB2518-MEL
# LOXIMVI = system: LOXIMVI
# MEL-HO = system: MEL-HO
# MZ2-MEL = system: MZ2-MEL
# MeWo = system: MeWo
# RPMI7951 = system: RPMI7951
# RVH-421 = system: RVH-421
# SkMel28 = system: SkMel28
# SkMel30 = system: SkMel30
# SkMel5 = system: SkMel5
# UACC257 = system: UACC257
# UACC62 = system: UACC62
# WM115 = system: WM115
# WM1716 = system: WM1716
# 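Note: cell number obtained by counting DAPI-stained nuclei in high-throughput microscope images with image analysis software, screen run in 1,536-well plates.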
Structure (SMILES),cell count (COLO792),cell count (COLO800),cell count (COLO829),cell count (G361),cell count (IPC-298),cell count (IST-MEL1),cell count (LB2518-MEL),cell count (LOXIMVI),cell count (MEL-HO),cell count (MZ2-MEL),cell count (MeWo),cell count (RPMI7951),cell count (RVH-421),cell count (SkMel28),cell count (SkMel30),cell count (SkMel5),cell count (UACC257),cell count (UACC62),cell count (WM115),cell count (WM1716)
"Cc1cc([N+](=O)[O-])ccc1NS(=O)(=O)c1cc(Cl)ccc1Cl + Cn1cc(/C=C2\C(=O)Nc3cccnc32)c2ccccc21 [GW441756] (first compound 1 µM, partner dose 0.4 µM)",79.4%,124%,105%,95.5%,80%,83.7%,89.7%,96.7%,76.6%,89.9%,96.7%,124%,88.6%,78.3%,91.1%,71.7%,84.3%,86.9%,92.1%,112%
"Cn1cc(/C=C2\C(=O)Nc3cccnc32)c2ccccc21 + O=c1cc(-c2cccc3c2Sc2ccccc2S3)oc(N2CCOCC2)c1 [KU55933] (first compound 0.4 µM, partner dose 1 µM)",106%,130%,119%,80.8%,94.4%,97.4%,115%,98.5%,79.1%,91%,119%,94.6%,114%,92.8%,91.3%,89%,96.8%,95.6%,117%,108%
"Oc1cc(-c2nc(-c3ccccc3)[nH]c2-c2ccncc2)ccc1Cl + O=C1NC(=O)/C(=C/c2ccc(-c3ccc(F)cc3O)o2)S1 [AS252424] (first compound 0.2 µM, partner dose 1 µM)",111%,87.3%,99%,77.2%,94.5%,96.7%,103%,112%,92.3%,90.1%,89.3%,105%,87.6%,73.8%,103%,111%,61.8%,55.1%,54.2%,110%
"COc1ccc(COc2ccc(Cc3cnc(N)nc3N)cc2OC)cc1 + O=C1NC(=O)/C(=C/c2ccc(-c3ccc(F)cc3O)o2)S1 [AS252424] (first compound 1 µM, partner dose 1 µM)",103%,103%,87.9%,87%,98.3%,95.6%,83.8%,99.3%,98.4%,108%,95.9%,113%,121%,93.9%,92.1%,108%,82.1%,107%,98.3%,97%
"Oc1nc(-c2ccc(C(F)(F)F)cc2)nc2c1CSCC2 + c1cc(-c2cnn3cc(-c4ccc(OCCN5CCCCC5)cc4)cnc23)ccn1 [Dorsomorphin] (first compound 2 µM, partner dose 0.4 µM)",82.1%,104%,105%,90.3%,96.2%,95.2%,89.4%,135%,97.2%,101%,105%,97.1%,83.1%,77.8%,94.8%,82.6%,78.4%,114%,91.6%,66.3%
"COc1ccc(COc2ccc(Cc3cnc(N)nc3N)cc2OC)cc1 + c1cc(-c2cnn3cc(-c4ccc(OCCN5CCCCC5)cc4)cnc23)ccn1 [Dorsomorphin] (first compound 1 µM, partner dose 0.4 µM)",95.6%,114%,103%,93.1%,91.3%,91.7%,103%,93.4%,97.1%,95.6%,112%,90.8%,112%,107%,92.3%,84.4%,86.4%,107%,111%,95.6%
"CCN(CC)CCCCNc1ncc2cc(-c3cc(OC)cc(OC)c3)c(NC(=O)NC(C)(C)C)nc2n1 + Oc1nc(-c2ccc(C(F)(F)F)cc2)nc2c1CSCC2 [XAV939] (first compound 0.1 µM, partner dose 2 µM)",78.7%,68%,109%,94.1%,106%,90%,102%,101%,88.9%,97.9%,117%,97.9%,108%,92.6%,111%,96.2%,85.1%,87.4%,95.2%,77.5%
"O=S(=O)(c1ccccc1)N(CC(F)(F)F)c1ccc(C(O)(C(F)(F)F)C(F)(F)F)cc1 + Oc1nc(-c2ccc(C(F)(F)F)cc2)nc2c1CSCC2 [XAV939] (first compound 1.4 µM, partner dose 2 µM)",88.5%,88.1%,91.3%,86.7%,91.7%,93.5%,89.6%,109%,111%,98.4%,93.9%,113%,111%,96.7%,102%,65.9%,91.5%,84.9%,91.4%,64.3%
"COc1ccc2c(c1)CCC1C2CCC2(C)C(NCCCCCCN3C(=O)C=CC3=O)CCC12 (stereo not given) + O=S(=O)(c1ccccc1)N(CC(F)(F)F)c1ccc(C(O)(C(F)(F)F)C(F)(F)F)cc1 [T0901317] (first compound 0.4 µM, partner dose 1.4 µM)",94.4%,95.3%,89.9%,83.5%,98.3%,96.8%,112%,84.5%,94.3%,105%,102%,78.4%,97.4%,95.1%,99.5%,82.9%,67%,82.5%,92.1%,60.6%
"COc1ccc(COc2ccc(Cc3cnc(N)nc3N)cc2OC)cc1 + CCCCCCCCCCCC1=C(O)C(=O)C=C(O)C1=O [Embelin] (first compound 1 µM, partner dose 1.2 µM)",95.4%,72.3%,90.3%,93.2%,104%,97.1%,98.9%,116%,86.8%,98.6%,110%,99.9%,86.6%,91.3%,116%,91.5%,89.3%,90.9%,101%,122%
"Oc1cc(-c2nc(-c3ccccc3)[nH]c2-c2ccncc2)ccc1Cl + COc1cc(N2CCC(N3CCN(C)CC3)CC2)ccc1Nc1ncc(Cl)c(Nc2ccccc2S(=O)(=O)C(C)C)n1 [NVP-TAE684] (first compound 0.2 µM, partner dose 0.08 µM)",90.2%,92.3%,99.5%,73.6%,88.9%,102%,123%,130%,86.9%,87%,91.7%,99.2%,81%,64.4%,79.1%,94.9%,75.9%,65.7%,68.9%,101%
"N#Cc1c(O)c2c(-c3ccc(-c4ccccc4O)cc3)csc2[nH]c1=O + COc1cc(N2CCC(N3CCN(C)CC3)CC2)ccc1Nc1ncc(Cl)c(Nc2ccccc2S(=O)(=O)C(C)C)n1 [NVP-TAE684] (first compound 2 µM, partner dose 0.08 µM)",89.3%,85%,93.7%,102%,98.8%,102%,106%,112%,101%,93.1%,101%,103%,17.2%,84.7%,115%,94.2%,88.4%,92.7%,102%,91.8%
"Cn1cc(/C=C2\C(=O)Nc3cccnc32)c2ccccc21 + CCCCCCCCCCCC1=C(O)C(=O)C=C(O)C1=O [Embelin] (first compound 0.4 µM, partner dose 1.2 µM)",92.9%,92.8%,105%,97.6%,88.3%,98.5%,113%,92.4%,99.5%,94.1%,101%,109%,104%,82.7%,114%,79.2%,87.3%,98.5%,100%,129%
"O=S(=O)(c1ccccc1)N(CC(F)(F)F)c1ccc(C(O)(C(F)(F)F)C(F)(F)F)cc1 + c1cc(-c2cnn3cc(-c4ccc(OCCN5CCCCC5)cc4)cnc23)ccn1 [Dorsomorphin] (first compound 1.4 µM, partner dose 0.4 µM)",93%,127%,98.4%,98%,98.8%,109%,106%,89.8%,76.6%,99.5%,107%,102%,92.4%,92.7%,83%,81.7%,90.2%,91.7%,107%,102%
"Oc1nc(-c2ccc(C(F)(F)F)cc2)nc2c1CSCC2 + COc1cc(N2CCC(N3CCN(C)CC3)CC2)ccc1Nc1ncc(Cl)c(Nc2ccccc2S(=O)(=O)C(C)C)n1 [NVP-TAE684] (first compound 2 µM, partner dose 0.08 µM)",82.5%,101%,104%,86.8%,98.1%,101%,103%,133%,116%,102%,99.3%,87.4%,104%,91.4%,114%,74.7%,86%,95.5%,90.5%,66.1%
"COc1ccc2c(c1)CCC1C2CCC2(C)C(NCCCCCCN3C(=O)C=CC3=O)CCC12 (stereo not given) + Cc1cc([N+](=O)[O-])ccc1NS(=O)(=O)c1cc(Cl)ccc1Cl [FH535] (first compound 0.4 µM, partner dose 1 µM)",86.6%,109%,86.9%,72.9%,94.7%,96.9%,107%,81.1%,73.1%,88.9%,90.4%,78.2%,85.4%,88.1%,93.8%,89.2%,95.3%,84.7%,87.6%,63.9%
"c1cc(-c2cnn3cc(-c4ccc(OCCN5CCCCC5)cc4)cnc23)ccn1 [Dorsomorphin] + Cn1cc(/C=C2\C(=O)Nc3cccnc32)c2ccccc21 [GW441756] (first compound 0.4 µM, partner dose 0.4 µM)",95.9%,98.6%,107%,83.6%,95.3%,98.9%,98.4%,96.6%,99.2%,85.2%,81.5%,115%,108%,93.2%,99.8%,64.6%,68.4%,87%,93.5%,82.3%
"COC(=O)c1sccc1S(=O)(=O)Nc1ccc(Nc2ccccc2)cc1OC + COc1ccc(COc2ccc(Cc3cnc(N)nc3N)cc2OC)cc1 [GW2580] (first compound 1 µM, partner dose 1 µM)",96.5%,62.6%,113%,106%,98.3%,104%,106%,113%,100%,95.1%,97.4%,99.3%,93.6%,89%,111%,83.3%,100%,91.9%,107%,87.8%

# Reference: the supplement of paper PMC4604168 (melanoma cell lines)
